{"source": "patent EP1079849B1", "about": "“USE OF HMG PROTEINS FOR THE PREPARATION OF MEDICAMENTS HAVING CYTOTOXIC ACTIVITY” (Istituto Di Ricerche \" Giorgio Sisini\", priority 1998, dated 2002)", "system": "tumors", "experiment": "DMBA-induced tumor growth in rats", "conditions": "female rats with DMBA-induced tumors, treated once a week for three consecutive weeks, HMG-I 30 µg/rat, 1-19 peptide 50 µg/rat"}
{"substance": "Peptide 1-19: peptide 1-19 of HMG-I, commercially available from Santa Cruz Biotechnology, Santa Cruz, CA, USA (MSESSSKSSQPLASKQEKD; UniProt P17096 1-19, looked up, fragment)", "values": [{"measurement": "Mean area of the tumor at the following treatment day", "setting": "treatment day 14", "value": "1,4±0,9 cm^2"}, {"measurement": "Mean area of the tumor at the following treatment day", "setting": "treatment day 21", "value": "1,5±0,8 cm^2"}]}
